Laboratory results taken from article PMC11876601 (Molecular Systems Biology, 2025).
Where two headings read alike, the source gives them in different places.

Legend:
Experiment in all cases: cells
BxPC-3 [1] = tested on: BxPC-3; design: Viability of PDAC cell lines, ATPlite luminescence, 11-dose single-agent curve fit; settings: Homo sapiens, BXPC-3, 72 h, read-out: EC50 [nM]
Description: (§1) Afterward, small amounts were transferred to 384-well intermediate plates (Greiner Bio-One GmbH, Germany). […] For drug combination screening, 1000 to 5000 cells were seeded into 384-well plates (CulturPlate™, Perkin Elmer, MA, USA) using a Multidrop™ Combi Reagent Dispenser (Thermo Scientific, MA, USA) in 50 µl medium per well 24 h prior to drug treatment (seeding densities see Appendix Table S1). […] The final DMSO concentration in each well was 0.2%. […] Eight wells per plate without library drug served as negative controls, and sixteen wells per plate containing 5 µM Staurosporine served as positive controls. […] Next, we analyzed the drug sensitivity of immortalized duct cell line HPDE to detect effects unrelated to pancreatic cancer.

AsPC-1 [2] = tested on: AsPC-1; design: Viability of PDAC cell lines, ATPlite luminescence, 11-dose single-agent curve fit; settings: Homo sapiens, ASPC1, 72 h, read-out: EC50 [nM]
Description: as §1

Dan-G [3] = tested on: Dan-G; design: Viability of PDAC cell lines, ATPlite luminescence, 11-dose single-agent curve fit; settings: 72 h, read-out: EC50 [nM]
Description: as §1

MiaPaCa-2 [4] = tested on: MiaPaCa-2; design: Viability of PDAC cell lines, ATPlite luminescence, 11-dose single-agent curve fit; settings: Homo sapiens, MIA PaCa-2, 72 h, read-out: EC50 [nM]
Description: as §1

HPDE = tested on: HPDE; design: Viability of PDAC cell lines, ATPlite luminescence, 11-dose single-agent curve fit; settings: HPDE, 72 h, read-out: EC50 [nM]
Description: as §1

PSN-1 [5] = tested on: PSN-1; design: Viability of PDAC cell lines, ATPlite luminescence, 11-dose single-agent curve fit; settings: Homo sapiens, PSN1, 72 h, read-out: EC50 [nM]
Description: as §1

Colo-357 [6] = tested on: Colo-357; design: Viability of PDAC cell lines, ATPlite luminescence, 11-dose single-agent curve fit; settings: Homo sapiens, COLO357, 72 h, read-out: EC50 [nM]
Description: as §1

PaTu-8988-T [7] = tested on: PaTu-8988-T; design: Viability of PDAC cell lines, ATPlite luminescence, 11-dose single-agent curve fit; settings: Homo sapiens, PaTu 8988t, 72 h, read-out: EC50 [nM]
Description: as §1

Capan-1 [8] = tested on: Capan-1; design: Viability of PDAC cell lines, ATPlite luminescence, 11-dose single-agent curve fit; settings: Homo sapiens, CAPAN-1, 72 h, read-out: EC50 [nM]
Description: as §1

HuP-T4 [9] = tested on: HuP-T4; design: Viability of PDAC cell lines, ATPlite luminescence, 11-dose single-agent curve fit; settings: Homo sapiens, HuP-T4, 72 h, read-out: EC50 [nM]
Description: as §1

PANC-1 = tested on: PANC-1; design: Viability of PDAC cell lines, ATPlite luminescence, 11-dose single-agent curve fit; settings: Homo sapiens, PANC-1, 72 h, read-out: EC50 [nM]
Description: as §1

FAMPAC [10] = tested on: FAMPAC; design: Viability of PDAC cell lines, ATPlite luminescence, 11-dose single-agent curve fit; settings: 72 h, read-out: EC50 [nM]
Description: as §1

Suit2-07 [11] = tested on: Suit2-07; design: Viability of PDAC cell lines, ATPlite luminescence, 11-dose single-agent curve fit; settings: 72 h, read-out: EC50 [nM]
Description: as §1

BxPC-3 [12] = tested on: BxPC-3; design: ATPlite luminescence viability of PDAC cell lines, 11-dose single-agent curves, 4-parameter fit; settings: Homo sapiens, BXPC-3, 72 h, read-out: EC50 [nM]
Description: as §1

AsPC-1 [13] = tested on: AsPC-1; design: ATPlite luminescence viability of PDAC cell lines, 11-dose single-agent curves, 4-parameter fit; settings: Homo sapiens, ASPC1, 72 h, read-out: EC50 [nM]
Description: as §1

Dan-G [14] = tested on: Dan-G; design: ATPlite luminescence viability of PDAC cell lines, 11-dose single-agent curves, 4-parameter fit; settings: 72 h, read-out: EC50 [nM]
Description: as §1

MiaPaCa-2 [15] = tested on: MiaPaCa-2; design: ATPlite luminescence viability of PDAC cell lines, 11-dose single-agent curves, 4-parameter fit; settings: Homo sapiens, MIA PaCa-2, 72 h, read-out: EC50 [nM]
Description: as §1

PSN-1 [16] = tested on: PSN-1; design: ATPlite luminescence viability of PDAC cell lines, 11-dose single-agent curves, 4-parameter fit; settings: Homo sapiens, PSN1, 72 h, read-out: EC50 [nM]
Description: as §1

PaTu-8988-T [17] = tested on: PaTu-8988-T; design: ATPlite luminescence viability of PDAC cell lines, 11-dose single-agent curves, 4-parameter fit; settings: Homo sapiens, PaTu 8988t, 72 h, read-out: EC50 [nM]
Description: as §1

Capan-1 [18] = tested on: Capan-1; design: ATPlite luminescence viability of PDAC cell lines, 11-dose single-agent curves, 4-parameter fit; settings: Homo sapiens, CAPAN-1, 72 h, read-out: EC50 [nM]
Description: as §1

HuP-T4 [19] = tested on: HuP-T4; design: ATPlite luminescence viability of PDAC cell lines, 11-dose single-agent curves, 4-parameter fit; settings: Homo sapiens, HuP-T4, 72 h, read-out: EC50 [nM]
Description: as §1

FAMPAC [20] = tested on: FAMPAC; design: ATPlite luminescence viability of PDAC cell lines, 11-dose single-agent curves, 4-parameter fit; settings: 72 h, read-out: EC50 [nM]
Description: as §1

Suit2-07 [21] = tested on: Suit2-07; design: ATPlite luminescence viability of PDAC cell lines, 11-dose single-agent curves, 4-parameter fit; settings: 72 h, read-out: EC50 [nM]
Description: as §1

Colo-357 [22] = tested on: Colo-357; design: ATPlite luminescence viability of PDAC cell lines, 11-dose single-agent curves, 4-parameter fit; settings: Homo sapiens, COLO357, 72 h, read-out: EC50 [nM]
Description: as §1

CCS(=O)(=O)N1CC(CC#N)(n2cc(-c3ncnc4[nH]ccc34)cn2)C1 [Baricitinib]
EC50 (BxPC-3 [1]): 145 nM
EC50 (AsPC-1 [2]): 3940 nM
EC50 (Dan-G [3]): 432 nM
EC50 (MiaPaCa-2 [4]): 4100 nM
EC50 (HPDE): 69 nM
EC50 (PSN-1 [5]): 5190 nM
EC50 (Colo-357 [6]): 43.8 nM
EC50 (PaTu-8988-T [7]): 4800 nM
EC50 (Capan-1 [8]): 32.2 nM
EC50 (HuP-T4 [9]): 3890 nM
EC50 (PANC-1): 33 nM
EC50 (FAMPAC [10]): > 10000 nM
EC50 (Suit2-07 [11]): 1390 nM

CNC(=O)c1ccccc1Sc1ccc2c(/C=C/c3ccccn3)n[nH]c2c1 [Axitinib]
EC50 (BxPC-3 [12]): > 10000 nM
EC50 (AsPC-1 [13]): > 10000 nM
EC50 (Dan-G [14]): 6780 nM
EC50 (MiaPaCa-2 [15]): > 10000 nM
EC50 (PSN-1 [16]): > 10000 nM
EC50 (PaTu-8988-T [17]): > 10000 nM
EC50 (Capan-1 [18]): 7560 nM
EC50 (HuP-T4 [19]): > 10000 nM
EC50 (FAMPAC [20]): > 10000 nM
EC50 (Suit2-07 [21]): > 10000 nM

CO[C@@H]1[C@H](N(C)C(=O)c2ccccc2)C[C@H]2O[C@]1(C)n1c3ccccc3c3c4c(c5c6ccccc6n2c5c31)C(=O)NC4 [Midostaurin]
EC50 (PANC-1): 338 nM
EC50 (BxPC-3 [12]): 249 nM
EC50 (AsPC-1 [13]): 1020 nM
EC50 (Dan-G [14]): 390 nM
EC50 (MiaPaCa-2 [15]): 338 nM
EC50 (PSN-1 [16]): 230 nM
EC50 (Colo-357 [22]): 637 nM
EC50 (Capan-1 [18]): 706 nM
EC50 (FAMPAC [20]): 345 nM
EC50 (Suit2-07 [21]): 491 nM
